Measurements from the supplement of paper PMC8728848.
The list shows a part of the results.

Tests used:
Assay in all cases: glycan array binding signal (z-score within array); higher = stronger binding
Conditions in all cases: glycan notation: IUPAC condensed, linker removed
[1] = biological target: Gal(b1-3)GlcNAc(a1-6)Gal(b1-4)GlcNAc
Summary of the method: (§1)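 Glycan array binding is given as a within-array Z-score, which can be read as non-binding when negative. The arrays, 3228 of them, came from the Consortium for Functional Glycomics database and were retained only where the protein sequence was available. Z-scores were averaged across arrays of the same protein sequence at different concentrations or buffers and across linkers.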

[2] = biological target: Gal(b1-3)GlcNAc(b1-2)Man
Summary of the method: as §1

[3] = biological target: Gal(b1-3)GlcNAc(b1-2)Man(a1-3)[Gal(b1-3)GlcNAc(b1-2)Man(a1-6)]Man(b1-4)GlcNAc(b1-4)GlcNAc
Summary of the method: as §1

[4] = biological target: Gal(b1-3)GlcNAc(b1-2)Man(a1-3)[Gal(b1-3)GlcNAc(b1-2)Man(a1-6)]Man(b1-4)GlcNAc(b1-4)[Fuc(a1-6)]GlcNAc
Summary of the method: as §1

[5] = biological target: Gal(b1-3)GlcNAc(b1-2)Man(a1-3)[GlcNAc(b1-4)][Gal(b1-3)GlcNAc(b1-2)Man(a1-6)]Man(b1-4)GlcNAc(b1-4)GlcNAc
Summary of the method: as §1

[6] = biological target: Gal(b1-3)GlcNAc(b1-2)[Gal(b1-3)GlcNAc(b1-6)]Man(a1-6)[Gal(b1-3)GlcNAc(b1-2)Man(a1-3)]Man(b1-4)GlcNAc(b1-4)GlcNAc
Summary of the method: as §1

[7] = biological target: Gal(b1-3)GlcNAc(b1-3)Gal(b1-3)GlcNAc
Summary of the method: as §1

[8] = biological target: Gal(b1-3)GlcNAc(b1-3)Gal(b1-4)Glc
Summary of the method: as §1

[9] = biological target: Gal(b1-3)GlcNAc(b1-3)Gal(b1-4)GlcNAc
Summary of the method: as §1

[10] = biological target: Gal(b1-3)GlcNAc(b1-3)Gal(b1-4)GlcNAc(b1-2)Man(a1-3)[Gal(b1-3)GlcNAc(b1-3)Gal(b1-4)GlcNAc(b1-2)Man(a1-6)]Man(b1-4)GlcNAc(b1-4)GlcNAc
Summary of the method: as §1

[11] = biological target: Gal(b1-3)GlcNAc(b1-3)Gal(b1-4)GlcNAc(b1-2)[Gal(b1-3)GlcNAc(b1-3)Gal(b1-4)GlcNAc(b1-6)]Man(a1-6)[Gal(b1-3)GlcNAc(b1-3)Gal(b1-4)GlcNAc(b1-2)Man(a1-3)]Man(b1-4)GlcNAc(b1-4)[Fuc(a1-6)]GlcNAc
Summary of the method: as §1

[12] = biological target: Gal(b1-3)GlcNAc(b1-3)Gal(b1-4)GlcNAc(b1-3)Gal(b1-4)GlcNAc(b1-2)[Gal(b1-3)GlcNAc(b1-3)Gal(b1-4)GlcNAc(b1-3)Gal(b1-4)GlcNAc(b1-6)]Man(a1-6)[Gal(b1-3)GlcNAc(b1-3)Gal(b1-4)GlcNAc(b1-3)Gal(b1-4)GlcNAc(b1-2)Man(a1-3)]Man(b1-4)GlcNAc(b1-4)[Fuc(a1-6)]GlcNAc
Summary of the method: as §1

[13] = biological target: Gal(b1-3)GlcNAc(b1-3)Gal(b1-4)GlcNAc(b1-6)[Gal(b1-3)GlcNAc(b1-3)]Gal(b1-4)Glc
Summary of the method: as §1

[14] = biological target: Gal(b1-3)GlcNAc(b1-3)Gal(b1-4)[Fuc(a1-3)]GlcNAc
Summary of the method: as §1

[15] = biological target: Gal(b1-3)GlcNAc(b1-3)Gal(b1-4)[Fuc(a1-3)]GlcNAc(b1-6)[Gal(b1-3)GlcNAc(b1-3)]Gal(b1-4)Glc
Summary of the method: as §1

[16] = biological target: Gal(b1-3)GlcNAc(b1-3)GalNAc
Summary of the method: as §1

[17] = biological target: Gal(b1-3)GlcNAc(b1-6)Gal(b1-4)GlcNAc
Summary of the method: as §1

[18] = biological target: Gal(b1-3)GlcNAc(b1-6)GalNAc
Summary of the method: as §1

[19] = biological target: Gal(b1-3)GlcNAc(b1-6)[Gal(b1-3)]GalNAc
Summary of the method: as §1

[20] = biological target: Gal(b1-3)GlcNAc6S
Summary of the method: as §1

[21] = biological target: Gal(b1-3)[Fuc(a1-4)]GlcNAc
Summary of the method: as §1

[22] = biological target: Gal(b1-3)[Fuc(a1-4)]GlcNAc(b1-2)Man
Summary of the method: as §1

[23] = biological target: Gal(b1-3)[Fuc(a1-4)]GlcNAc(b1-2)Man(a1-3)[Gal(b1-3)[Fuc(a1-4)]GlcNAc(b1-2)Man(a1-6)]Man(b1-4)GlcNAc(b1-4)[Fuc(a1-6)]GlcNAc
Summary of the method: as §1

[24] = biological target: Gal(b1-3)[Fuc(a1-4)]GlcNAc(b1-3)Gal(b1-3)[Fuc(a1-4)]GlcNAc
Summary of the method: as §1

[25] = biological target: Gal(b1-3)[Fuc(a1-4)]GlcNAc(b1-3)Gal(b1-4)GlcNAc
Summary of the method: as §1

[26] = biological target: Gal(b1-3)[Fuc(a1-4)]GlcNAc(b1-3)Gal(b1-4)[Fuc(a1-3)]GlcNAc
Summary of the method: as §1

[27] = biological target: Gal(b1-3)[Fuc(a1-4)]GlcNAc(b1-6)GalNAc
Summary of the method: as §1

[28] = biological target: Gal(b1-3)[GlcNAc(b1-6)]GalNAc
Summary of the method: as §1

[29] = biological target: Gal(b1-3)[Neu5Ac(a2-6)]GalNAc
Summary of the method: as §1

[30] = biological target: Gal(b1-3)[Neu5Ac(a2-6)]GlcNAc(b1-4)Gal(b1-4)Glc
Summary of the method: as §1

[31] = biological target: Gal(b1-3)[Neu5Ac(b2-6)]GalNAc
Summary of the method: as §1

[32] = biological target: Gal(b1-4)Gal
Summary of the method: as §1

[33] = biological target: Gal(b1-4)GalNAc(a1-3)[Fuc(a1-2)]Gal(b1-4)GlcNAc
Summary of the method: as §1

[34] = biological target: Gal(b1-4)GalNAc(b1-3)[Fuc(a1-2)]Gal(b1-4)GlcNAc
Summary of the method: as §1

[35] = biological target: Gal(b1-4)Glc
Summary of the method: as §1

[36] = biological target: Gal(b1-4)Glc6S
Summary of the method: as §1

[37] = biological target: Gal(b1-4)GlcNAc
Summary of the method: as §1

[38] = biological target: Gal(b1-4)GlcNAc(a1-6)Gal(b1-4)GlcNAc
Summary of the method: as §1

[39] = biological target: Gal(b1-4)GlcNAc(b1-2)Man
Summary of the method: as §1

[40] = biological target: Gal(b1-4)GlcNAc(b1-2)Man(a1-3)Man(b1-4)GlcNAc(b1-4)GlcNAc
Summary of the method: as §1

[41] = biological target: Gal(b1-4)GlcNAc(b1-2)Man(a1-3)[Gal(b1-4)GlcNAc(b1-2)Man(a1-6)]Man(b1-4)GlcNAc(b1-4)GlcNAc
Summary of the method: as §1

[42] = biological target: Gal(b1-4)GlcNAc(b1-2)Man(a1-3)[Gal(b1-4)GlcNAc(b1-2)Man(a1-6)]Man(b1-4)GlcNAc(b1-4)[Fuc(a1-6)]GlcNAc
Summary of the method: as §1

[43] = biological target: Gal(b1-4)GlcNAc(b1-2)Man(a1-3)[Gal(b1-4)GlcNAc(b1-2)Man(a1-6)][Gal(b1-4)GlcNAc(b1-4)]Man(b1-4)GlcNAc(b1-4)[Fuc(a1-6)]GlcNAc
Summary of the method: as §1

[44] = biological target: Gal(b1-4)GlcNAc(b1-2)Man(a1-3)[Gal(b1-4)GlcNAc(b1-2)Man(a1-6)][GlcNAc(b1-4)]Man(b1-4)GlcNAc(b1-4)[Fuc(a1-6)]GlcNAc
Summary of the method: as §1

[45] = biological target: Gal(b1-4)GlcNAc(b1-2)Man(a1-3)[GlcNAc(b1-2)Man(a1-6)]Man(b1-4)GlcNAc(b1-4)GlcNAc
Summary of the method: as §1

B1: rMpL (Macrolepiota procera) (protein)
chain: MSTQVSSGRTYKITNVIAGTVIDLSGEDNKSIIGYPYHSGKNQQWTFNWTGKAWTLRSASSGSYLGIEGTPAGGTRLVAVNDPFEWHIWRDEANENAFRIFVPFTNYNLDLSGYGDTTPGTPVQLWWTWEGLHQTWTIDRP
- glycan array binding signal (z-score) [1]: 1.95
- glycan array binding signal (z-score) [2]: 0.202
- glycan array binding signal (z-score) [3]: 2.45
- glycan array binding signal (z-score) [4]: 0.864
- glycan array binding signal (z-score) [5]: 2.85
- glycan array binding signal (z-score) [6]: 3.42
- glycan array binding signal (z-score) [7]: 0.42
- glycan array binding signal (z-score) [8]: 0.808
- glycan array binding signal (z-score) [9]: 0.716
- glycan array binding signal (z-score) [10]: 2.18
- glycan array binding signal (z-score) [11]: 2.4
- glycan array binding signal (z-score) [12]: 3.58
- glycan array binding signal (z-score) [13]: 4.17
- glycan array binding signal (z-score) [14]: 0.567
- glycan array binding signal (z-score) [15]: 2.71
- glycan array binding signal (z-score) [16]: 0.153
- glycan array binding signal (z-score) [17]: 1.8
- glycan array binding signal (z-score) [18]: 0.242
- glycan array binding signal (z-score) [19]: 0.111
- glycan array binding signal (z-score) [20]: -0.257
- glycan array binding signal (z-score) [21]: -0.339
- glycan array binding signal (z-score) [22]: -0.002
- glycan array binding signal (z-score) [23]: -0.163
- glycan array binding signal (z-score) [24]: -0.238
- glycan array binding signal (z-score) [25]: 0.949
- glycan array binding signal (z-score) [26]: -0.309
- glycan array binding signal (z-score) [27]: -0.166
- glycan array binding signal (z-score) [28]: -0.29
- glycan array binding signal (z-score) [29]: -0.283
- glycan array binding signal (z-score) [30]: -0.319
- glycan array binding signal (z-score) [31]: -0.327
- glycan array binding signal (z-score) [32]: -0.278
- glycan array binding signal (z-score) [33]: -0.148
- glycan array binding signal (z-score) [34]: 0.063
- glycan array binding signal (z-score) [35]: -0.195
- glycan array binding signal (z-score) [36]: -0.052
- glycan array binding signal (z-score) [37]: 0.051
- glycan array binding signal (z-score) [38]: 9.59
- glycan array binding signal (z-score) [39]: -0.283
- glycan array binding signal (z-score) [40]: 0.072
- glycan array binding signal (z-score) [41]: 0.854
- glycan array binding signal (z-score) [42]: 0.657
- glycan array binding signal (z-score) [43]: 2.02
- glycan array binding signal (z-score) [44]: 0.777
- glycan array binding signal (z-score) [45]: 0.046
